Test results published in patent US20260151501A1, “ANTIBODY-DRUG CONJUGATE COMPRISING ANTI-CLAUDIN-18.2 ANTIBODY, AND THERAPEUTIC USE THEREOF FOR CANCER” (ABTIS CO., LTD., priority 2022, published 2026).

Tests used:
[1] = test system: NUGC-4 cell line; assay: Cytotoxicity (CellTiter-Glo cell viability), NUGC-4; assay type: cell-based; details: NUGC4 (CLDN18.2+), gastric cancer
Procedure: (§1) To measure cell viability in cytotoxicity experiments, the measurement of luminescence using GloMax® Discover was used, and the measurement method was according to the equipment manual.
(§2) Four types of cell lines (MIA PaCa-2˜CLDN18.2, PATU8988S, parental MIA PaCa-2 (CLDN18.2-), SNU601, NUGC-4, and AGS) were prepared. At this time, MIA PaCa-2˜CLDN18.2 and PATU8988S are CLDN18.2-positive pancreatic cancer cell lines. MIA PaCa-2 (CLDN18.2-) is a CLDN18.2-negative pancreatic cancer cell line. SNU601 and NUGC-4 are CLDN18.2-positive gastric cancer cell lines. AGS is a CLDN18.2-negative gastric cancer cell line.
(§3) The prepared cell lines were cultured in DMEM containing 10% FBS and 1% penicillin/streptomycin (MIA PaCa-2˜CLDN18.2, MIA PaCa-2 (CLDN18.2-)), RPMI1640 containing 10% FBS and 1% penicillin/streptomycin (SNU601, NUGC-4, and AGS), and DMEM containing 5% FBS, 5% horse serum, 1% penicillin/streptomycin, and […] L-glutamine (PATU8988S) in an incubator under the conditions of 37° C. and 5% CO2. […]
(§4) Changes in cell viability according to treatment of each test substance were measured using the same method as the CellTiter-Glo manual.
(§5) The measured results were used for a regression analysis in GraphPad PRISM® 9.0 software to calculate IC50. The cytotoxicity of each test substance was evaluated based on the calculated values.

[2] = test system: MIA PaCa-2˜CLDN18.2 cell line; assay: Cytotoxicity (CellTiter-Glo cell viability), MIA PaCa-2˜CLDN18.2; assay type: cell-based; details: pancreatic cancer
Procedure: as §1, §2, §3, §4, §5

[3] = molecular target: T1, claudin18.2 protein (CLDN18.2) (Homo sapiens, UniProt P56856); assay: Indirect ELISA binding to CLDN18.2 VLP; details: CLDN18.2 (antigen protein) VLP, OD at 450 nm
T1 construct: purchased CUSABIO TECHNOLOGY LLC CSB-MP005498HU (A5)
Procedure: OD value measurement through ELISA was performed by measuring the absorbance at 450 nm using a UV-Vis spectrometer.
To confirm the binding strength to an antigen, a CLDN18.2˜VLP (virus-like particle) expressing the claudin18.2 protein (CLDN18.2) was prepared. At this time, CLDN18.2˜VLP is CSB-MP005498HU (A5) from CUSABIO TECHNOLOGY LLC.
After a 96-well plate was coated with the CLDN18.2 VLP for ELISA and treated with each of antibody-A and ADC-A, indirect ELISA was performed to measure OD values.
The measured results were used for a regression analysis in GraphPad PRISM® 9.0 software to calculate EC50 and Bmax. The antigen binding affinity of antibody-A, ADC-A, antibody-B, and ADC-B were evaluated based on the calculated values.

[4] = test system: SNU601 cell line; assay: Cytotoxicity (CellTiter-Glo cell viability), SNU601; assay type: cell-based; details: SNU601 (CLDN18.2+), gastric cancer
Procedure: as §1, §2, §3, §4, §5

[5] = test system: PATU8988S cell line; assay: Cytotoxicity (CellTiter-Glo cell viability), PATU8988S; assay type: cell-based; details: PATU8988S (CLDN18.2+), pancreatic cancer
Procedure: as §1, §2, §3, §4, §5

[6] = Pharmacokinetics after single intravenous administration; assay type: in vivo; details: rats
Procedure: Centrifugation in the pretreatment process was performed under the conditions of 13,000 rpm and 4° C. for 10 minutes.
After a single administration of ADC-A at doses of 1 and 3 mg/kg to rats (purchased from SAMTAKO Bio Korea CO., LTD.) through the tail vein, blood was collected for a certain period of time and analyzed to compare and evaluate the pharmacokinetic profile. The supernatant was obtained from the plasma using a centrifuge, and the concentration of ADC-A in the plasma was analyzed using the ELISA method. Parameters were calculated by performing a pharmacokinetic analysis in a non-compartmental manner using Phoenix® WinNonlin® software.

| Molecule | IC50 [1] [nM] | IC50 [2] [nM] | Bmax [3] | IC50 [4] [nM] | IC50 [5] [nM] | half-life (t1/2), total ADC ([6]; single intravenous 1 mg/kg) [h] | half-life (t1/2), total antibodies (total Ab) ([6]; single intravenous 1 mg/kg) [h] | total clearance, total ADC ([6]; single intravenous 1 mg/kg) [mL/h/kg] | total clearance, total antibodies (total Ab) ([6]; single intravenous 1 mg/kg) [mL/h/kg] | half-life (t1/2), total ADC ([6]; single intravenous 3 mg/kg) [h] | half-life (t1/2), total antibodies (total Ab) ([6]; single intravenous 3 mg/kg) [h] | total clearance, total ADC ([6]; single intravenous 3 mg/kg) [mL/h/kg] | total clearance, total antibodies (total Ab) ([6]; single intravenous 3 mg/kg) [mL/h/kg] |
| --- | --- | --- | --- | --- | --- | --- | --- | --- | --- | --- | --- | --- | --- |
| Antibody-A: anti-claudin18.2 antibody with heavy chain of SEQ ID NO: 16 and light chain of SEQ ID NO: 17 (antibody, heavy chain of Claudin18.2 antibody; light chain of Claudin18.2 antibody) heavy: QVQLVESGGGVVQPGRSLRLSCAASGFSLTTYGVHWVRQAPGKGLEWVAVIWAGGSTNYNSALMSRFTISRDNSKNTLYLQMNSLRAEDTAVYYCARAAYYGNGLDYWGQGTMVTVSS[… human IgG1 constant region …] light: DIVMTQSPLSLPVTPGEPASISCKSSQTLLNSGNQKNYLTWYLQKPGQSPQLLIYWASTGESGVPDRFSGSGSGTDFTLKISRVEAEDVGVYYCQNAYFYPFTFGGGTKVEIKRTVAAPSVFIFPPSDEQLKSGTASVVCLLNNFYPREAKVQWKVDNALQSGNSQESVTEQDSKDSTYSLSSTLTLSKADYEKHKVYACEVTHQGLSSPVTKSFNRGEC | > 66.7 | > 66.7 | 3.229 | > 66.7 | > 66.7 | – | – | – | – | – | – | – | – |
| ADC-A (conjugate) heavy: QVQLVESGGGVVQPGRSLRLSCAASGFSLTTYGVHWVRQAPGKGLEWVAVIWAGGSTNYNSALMSRFTISRDNSKNTLYLQMNSLRAEDTAVYYCARAAYYGNGLDYWGQGTMVTVSS[… human IgG1 constant region …] light: DIVMTQSPLSLPVTPGEPASISCKSSQTLLNSGNQKNYLTWYLQKPGQSPQLLIYWASTGESGVPDRFSGSGSGTDFTLKISRVEAEDVGVYYCQNAYFYPFTFGGGTKVEIKRTVAAPSVFIFPPSDEQLKSGTASVVCLLNNFYPREAKVQWKVDNALQSGNSQESVTEQDSKDSTYSLSSTLTLSKADYEKHKVYACEVTHQGLSSPVTKSFNRGEC | – | – | – | – | – | 125 | 108 | 3.0 | 2.9 | 118 | 113 | 2.5 | 2.8 |
